Assay results taken from PubChem BioAssay AID743279 (National Center for Advancing Translational Sciences (NCATS), 2014).
Hit rate of the full screen: of about 360,000 compounds, about 17,000 (4.7%) were called active. Inconclusive means that the source gave no clear call. Such entries were picked first, then a sample of the others. Rule as the data show it: active = activity change below about -50%; inconclusive = mostly about -30% to -49%; inactive = weaker than that.
% is scaled to controls: 0 for no effect and ±100 for the full control effect.

Experiment: qHTS for Inhibitors of Inflammasome Signaling: IL-1-beta AlphaLISA Primary Screen
Details: THP-1 LPS/ATP IL-1B secretion, 16 h; at 57.5 µM, active compounds read low
How it was run: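 THP-1 cells pretreated 1 hr with compounds (up to 57.5 uM final), then stimulated with LPS (250 ng/mL final) plus ATP (1.25 mM final); secreted IL-1B measured by AlphaLISA after 16 hr, decreased signal indicating inhibition.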
With `O=C(C1CCCN(S(=O)(=O)c2cccc3nonc23)C1)N1CCN(c2ccccc2Cl)CC1` (centres undefined) the activity change was active: -50.5%. With `OCCC1CN(Cc2nc3ccc(F)cc3[nH]2)CCN1C1CCCC1` (centres undefined) the activity change was inactive: 35.8%. For `Cc1c(C(=O)OCC(=O)NC(=O)NC2CCCCC2)cccc1[N+](=O)[O-]`, the activity change was active: -66.8%. With `O=C(CNC(=O)c1ccc(Cl)cc1)c1ccc(Br)cc1` the activity change was inconclusive: -47.4%. In the case of `N=c1n(CC(=O)c2cccs2)c2ccccc2n1Cc1ccccc1`, the activity change is reported as inactive: -6.95%. With `C[C@@H]1CN([C@H](C)CO)S(=O)(=O)c2ccc(C#Cc3ccccc3F)cc2O[C@@H]1CN(C)C(=O)Cc1ccccc1` the activity change was inconclusive: -36.3%. In the case of `Nc1n[nH]c(N)c1N=Nc1ccc2c(c1)OCO2`, the activity change is reported as inconclusive: -36.2%. In the case of `CN(CCCCCCN(C)Cc1ccccc1O)Cc1ccccc1O`, the activity change is reported as inconclusive: -34.6%. With `NC(=O)C12CCCC(Br)(CCC1)C2` the activity change was active: -62.5%. With `C=CCc1ccccc1OCC(O)CN1CCN(CCO)CC1` (centres undefined) the activity change was inactive: 9.73%. With `O=c1c2cn[nH]c2nc(SCc2cc(=O)n3cc(Br)ccc3n2)n1-c1ccc(Br)cc1` the activity change was active: -51%. In the case of `O=C(NCc1ccc(F)cc1)C(c1ccccc1)c1ccccc1`, the activity change is reported as inconclusive: -36.8%. With `CCOc1ccccc1C(=O)Nc1ccc2nc(N3CCN(c4ncccn4)CC3)cc(C)c2c1` the activity change was inconclusive: -35.6%. In the case of `Cc1cc(/C=C2\SC(=S)NC2=O)cc(C)c1O`, the activity change is reported as inconclusive: -34.5%. In the case of `Cc1nnc(SC(C)C(=O)Nc2ccc(S(=O)(=O)NC3CCCCC3)cc2)s1` (centres undefined), the activity change is reported as inconclusive: -49.6%. For `CC(=O)Nc1cccc(-c2cnc(N)c(C(=O)c3cccnc3)n2)c1`, the activity change was active: -98.7%. In the case of `Cc1cc(Nc2n[nH]c(N)c2C#N)ccc1F`, the activity change is reported as inconclusive: -38.4%. For `Cn1cc(CNCc2cn[nH]c2-c2ccc(F)cc2)c(-c2ccc3c(c2)OCCO3)n1`, the activity change was inactive: -8.28%. In the case of `S=C1NC[C@H](Cc2ccccc2)N1CC1CCN(CCCC2CCCC2)CC1`, the activity change is reported as active: -66.6%. In the case of `S=C(NCCc1ccccc1)NC1CC2CCC(C1)N2Cc1ccccc1` (centres undefined), the activity change is reported as active: -60.1%. In the case of `NC(=O)c1c(NC(=O)Cc2cccs2)sc2c1CCC2`, the activity change is reported as inconclusive: -33.1%. For `Cc1csc(Sc2nc3c(c(=O)[nH]c(=O)n3C)n2CCCc2ccccc2)n1`, the activity change was inactive: 5%. With `C[C@H](CO)N1C[C@H](C)[C@@H](CN(C)CC2CCCCC2)Oc2c(NC(=O)Cc3ccccc3)cccc2C1=O` the activity change was active: -70%. With `CCC(C)(C)n1nnnc1C(c1cc2cc(C)cc(C)c2[nH]c1=O)N1CCCC1` (centres undefined) the activity change was active: -50.6%. In the case of `O=C(C1CCN(S(=O)(=O)c2ccc(Br)s2)CC1)N1CCCCC1`, the activity change is reported as inactive: -6.09%. In the case of `O=C(COC(=O)c1ccc(O)cc1O)Nc1cc(-c2ccccc2)nn1-c1ccccc1`, the activity change is reported as active: -57.7%. With `COc1ccc(-n2cc(CNCCCn3ccnc3)c(-c3cccc(F)c3)n2)cc1` the activity change was inconclusive: -45.7%. For `O=C(Nc1c(C(=O)O)oc2ccc(Br)cc12)c1ccccc1`, the activity change was inconclusive: -49.6%. In the case of `O=S(=O)(c1ccccc1)c1ncc(C(F)(F)F)cc1Cl`, the activity change is reported as active: -106%. In the case of `CSc1ccc(/C=N/n2c(C3CCCCC3)n[nH]c2=S)cc1`, the activity change is reported as active: -61.9%. In the case of `COc1ccc(N2CCN(c3nc(NCCc4ccc(OC)c(OC)c4)nc(OC)n3)CC2)cc1`, the activity change is reported as inconclusive: -34.6%. With `CCO[C@@H]1OC(C(=O)N2CCN(Cc3ccc4c(c3)OCO4)CC2)=C[C@H](c2csc3ccccc23)[C@H]1CCCO` the activity change was inconclusive: -49.2%. For `COC(=O)c1cc(S(=O)(=O)NCC2CCN(Cc3ccc(Cl)cc3)CC2)cn1C`, the activity change was inconclusive: -34.9%. In the case of `CCCCNC(=S)NC1CCCC1`, the activity change is reported as inactive: 6.01%. With `COc1cccc(CNC(=O)CCS(=O)(=O)c2ccccc2Cl)c1` the activity change was inactive: -9.65%. For `O=C1c2cccc(NCCCNCCO)c2C(=O)c2cccc(NCCCNCCO)c21`, the activity change was active: -103%. For `CN(CC(=O)NCc1ccccc1Cl)CC(=O)Nc1ccccc1Br`, the activity change was inconclusive: -49.6%. With `O=[N+]([O-])c1ccc2c(c1)C(N1CCOCC1)/C(=C/COc1ccc(F)cc1)O2` (centres undefined) the activity change was inconclusive: -38.6%. With `CN(CC/C=C1/c2ccccc2CSc2ccccc21)CCCO` the activity change was active: -57.7%. For `C/C(=N\Nc1ncc(Br)cn1)c1cccc([N+](=O)[O-])c1`, the activity change was active: -73.1%. In the case of `CC(C)C1OC2(C)OC(=N)C1(C#N)C(C#N)(C#N)C2c1ccccc1` (centres undefined), the activity change is reported as inactive: 15.8%. In the case of `CNc1ccc(Br)cc(C(=O)/C=C/c2ccc(OC)cc2)c1=O`, the activity change is reported as inconclusive: -34.2%. With `CC[C@]12c3[nH]c4ccccc4c3CCN1C(=O)C(CC(=O)NC/C=C(\C)CCC=C(C)C)C[C@@H]2C(=O)N1CCN(C(=O)C2CC2)CC1` (some centres undefined) the activity change was inconclusive: -45.7%. For `C[C@@H]1CN([C@H](C)CO)C(=O)c2cc(NC(=O)Nc3ccc(C(F)(F)F)cc3)ccc2O[C@H]1CN(C)S(=O)(=O)c1ccccc1`, the activity change was inconclusive: -37.7%. In the case of `CCCOc1cccc(CN2CCCCC2c2cccnc2)c1` (centres undefined), the activity change is reported as inconclusive: -32.6%. In the case of `CC(NC(=O)c1cc(F)c(F)c(F)c1F)c1ccc(-n2ccnc2)cc1` (centres undefined), the activity change is reported as inconclusive: -38.6%. In the case of `COc1cccc(-c2ccc3nnc(SCC(=O)N4CCCC4)n3n2)c1`, the activity change is reported as inconclusive: -38.7%. For `CCOc1ccc(-c2cc(C(=O)N/N=C/c3cccnc3)c3ccccc3n2)cc1`, the activity change was inactive: 23.3%. For `CC(C)(C)c1ccc(C(=O)NC(=S)Nc2sc3c(c2C#N)CCC3)cc1`, the activity change was inconclusive: -39.5%. In the case of `Cc1ccc(-c2csc3ncnc(OCC(=O)NC(=O)NCc4ccco4)c23)cc1`, the activity change is reported as inactive: -16.2%. With `CC(C)NC(=O)Nc1ccc2c(c1)C(=O)N([C@H](C)CO)C[C@H](C)[C@@H](CN(C)Cc1ccc(C(F)(F)F)cc1)OCCCC[C@H](C)O2` the activity change was inconclusive: -42.7%. With `O=C(Nc1nnc([C@@H]2C[C@H](O)[C@@H](CO)O2)s1)c1c(F)cccc1F` the activity change was active: -55.6%. In the case of `c1cncc(CSc2ccc(-c3cccnc3)nn2)c1`, the activity change is reported as inconclusive: -36%. For `O=C(Nc1ccc(Cl)c(Cl)c1)Oc1ccc(NC(=O)c2ccco2)cc1`, the activity change was active: -88.2%.
